Data published in a collection of fitness landscapes (doi:10.1016/j.celrep.2020.107928).
Over roughly 81,000 sequences, “one-hybrid fitness for binding NBS DNA” has its median near -0.1; the highest 2% begin near 0.36. The list shows a part of the results.

B1: Caulobacter ParB omega fusion; a variant is named by its letters at X, in order, B8GW30 (parent)
chain: MESVVVGEPGMSEGRRGLGRGLSALLGEVDAAPAQAPGEQLGGSREAPIEILQRNPDQPRRTFREEDLEDLSNSIREKGVLQPILVRPSPDTAGEYQIVAGERAWRAAQRAGLKTVPIMVRELDDLAVLEIGIIENVQRADLNVLEEALSYKVLMEKFERTQENIAQTIGKSXSHVANXMRLLXLPDEVQSYLVSGELTAXHARAIAAAADPVALAKQIIEGGLSVRETEALARKAPNLSAGKSKGGRPPRVKDTDTQALESDLSSVLGLDVSIDHRGSTGTLTITYATLEQLDDLCNRLTRGI

Variants of: B1
Test: one-hybrid fitness for binding NBS DNA (the Noc-binding site; scaled: cognate 1, non-cognate 0); higher = stronger binding
Conditions: with NBS DNA site
How it was run: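 Fitness here means the log change in variant-to-wild-type read ratio between plasmids sequenced before and after selection. That scale was set so cognate equals 1 and non-cognate equals 0. The selection was a bacterial one-hybrid screen of Caulobacter ParB libraries, four specificity codons randomised, in E. coli USO carrying a HIS3 reporter with the site 19 bp from the promoter, grown 48 hours at 37°C on M9-minus-histidine with 0.1 mM IPTG and 5 mM 3-AT.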

Variant | one-hybrid fitness for binding NBS DNA
GVLR | ≤ 0.2
QKKQ | 0.384
KFTR | ≤ 0.2
NHKL | ≤ 0.2
QSCL | ≤ 0.2
YKQV | ≤ 0.2
VVPI | ≤ 0.2
AKIL | ≤ 0.2
PYNM | ≤ 0.2
YACK | ≤ 0.2
GGGS | ≤ 0.2
WSPR | ≤ 0.2
EHHV | ≤ 0.2
ISCG | ≤ 0.2
GQDR | ≤ 0.2
YLRR | ≤ 0.2
TVMC | ≤ 0.2
QCSW | ≤ 0.2
NGLG | ≤ 0.2
EYPW | ≤ 0.2
QLHM | ≤ 0.2
RWTG | ≤ 0.2
RRED | ≤ 0.2
TTTG | ≤ 0.2
VSMG | ≤ 0.2
AEDS | ≤ 0.2

Variant | one-hybrid fitness for binding NBS DNA
YFGT | ≤ 0.2
CQRT | ≤ 0.2
LISF | ≤ 0.2
AGMG | ≤ 0.2
RYTG | ≤ 0.2
IYLA | ≤ 0.2
HACG | ≤ 0.2
DWYS | ≤ 0.2
HIAK | ≤ 0.2
QHPK | ≤ 0.2
PKWR | ≤ 0.2
HKYV | ≤ 0.2
YLGG | ≤ 0.2
SQNT | ≤ 0.2
CLVS | ≤ 0.2
YPYP | ≤ 0.2
QYPR | 0.27
ANQS | ≤ 0.2
AYDY | ≤ 0.2
DPSA | ≤ 0.2
QKRC | 0.425
KCRA | ≤ 0.2
IMVR | ≤ 0.2
TCNA | ≤ 0.2
ESLG | ≤ 0.2
THPV | ≤ 0.2

Variant | one-hybrid fitness for binding NBS DNA
HSLM | ≤ 0.2
RHRL | ≤ 0.2
SFYS | ≤ 0.2
HYDY | ≤ 0.2
GKSG | ≤ 0.2
WYVT | ≤ 0.2
KYFG | ≤ 0.2
HCPV | ≤ 0.2
DWIC | ≤ 0.2
AWIR | ≤ 0.2
EMET | ≤ 0.2
YVEG | ≤ 0.2
MTKP | ≤ 0.2
LTRT | ≤ 0.2
SVKW | ≤ 0.2
ASKD | ≤ 0.2
RTMS | 0.452
LYHH | ≤ 0.2
VSHG | ≤ 0.2
DNLR | ≤ 0.2
YYWY | ≤ 0.2
ESKI | ≤ 0.2
SAHT | ≤ 0.2
VWVC | ≤ 0.2
MPKT | ≤ 0.2
TECL | ≤ 0.2

Variant | one-hybrid fitness for binding NBS DNA
FQMG | ≤ 0.2
WIKC | ≤ 0.2
RGLF | ≤ 0.2
SKPA | ≤ 0.2
CCPY | ≤ 0.2
HVQQ | ≤ 0.2
SLNC | ≤ 0.2
GGIG | ≤ 0.2
RQRV | 0.203
NTLS | ≤ 0.2
QACG | ≤ 0.2
NNNF | ≤ 0.2
PWTR | ≤ 0.2
TISR | ≤ 0.2
DIFG | ≤ 0.2
AHQP | ≤ 0.2
RYMN | ≤ 0.2
RVCV | ≤ 0.2
LWQY | ≤ 0.2
RPAP | ≤ 0.2
ADND | ≤ 0.2
LSKV | ≤ 0.2
GPPH | ≤ 0.2
LQHI | ≤ 0.2
DGST | ≤ 0.2
KGQR | ≤ 0.2

Variant | one-hybrid fitness for binding NBS DNA
PDCA | ≤ 0.2
QLID | ≤ 0.2
YPYC | ≤ 0.2
SAEN | ≤ 0.2
VVYD | ≤ 0.2
YAGY | ≤ 0.2
HDRG | ≤ 0.2
QAAY | ≤ 0.2
THEG | ≤ 0.2
PRES | ≤ 0.2
PPHS | ≤ 0.2
FPVY | ≤ 0.2
VASG | ≤ 0.2
RGPP | ≤ 0.2
TIAG | ≤ 0.2
RMLN | ≤ 0.2
VTQV | ≤ 0.2
KRRN | 0.217
YYDR | ≤ 0.2
AGCC | ≤ 0.2
CVPM | ≤ 0.2
PFSI | ≤ 0.2
FDVC | ≤ 0.2
AGWS | ≤ 0.2
RMYI | ≤ 0.2
KQSA | ≤ 0.2

Variant | one-hybrid fitness for binding NBS DNA
PSRK | ≤ 0.2
PRLK | ≤ 0.2
IGAV | ≤ 0.2
VEYC | ≤ 0.2
MSSM | ≤ 0.2
WPPA | ≤ 0.2
GTHF | ≤ 0.2
PRGA | ≤ 0.2
QPVT | 0.269
STMC | ≤ 0.2
CWGR | ≤ 0.2
TRLY | ≤ 0.2
KVVG | ≤ 0.2
HNPC | ≤ 0.2
VMDS | ≤ 0.2
FDSA | ≤ 0.2
NENR | ≤ 0.2
SMTV | ≤ 0.2
SLAP | ≤ 0.2
YKHA | ≤ 0.2
SYRR | 0.337
HLDS | ≤ 0.2
TIIM | ≤ 0.2
